In all, about 33,000 sequences were measured (“E-score (-0.5 to 0.5)”: median about -0.041, highest 2% from about 0.37 on). The list shows a part of the results.
molecular target: T1, Ecm22 (UniProt Q05958); assay: PBM E-score (8-mer binding enrichment) (E-score (-0.5 to 0.5)); higher = stronger / more preferred TF binding; most listed sequences are background and not binding sites; settings: protein concentration: 200 nM; construct: GST-full length
T1 sequence: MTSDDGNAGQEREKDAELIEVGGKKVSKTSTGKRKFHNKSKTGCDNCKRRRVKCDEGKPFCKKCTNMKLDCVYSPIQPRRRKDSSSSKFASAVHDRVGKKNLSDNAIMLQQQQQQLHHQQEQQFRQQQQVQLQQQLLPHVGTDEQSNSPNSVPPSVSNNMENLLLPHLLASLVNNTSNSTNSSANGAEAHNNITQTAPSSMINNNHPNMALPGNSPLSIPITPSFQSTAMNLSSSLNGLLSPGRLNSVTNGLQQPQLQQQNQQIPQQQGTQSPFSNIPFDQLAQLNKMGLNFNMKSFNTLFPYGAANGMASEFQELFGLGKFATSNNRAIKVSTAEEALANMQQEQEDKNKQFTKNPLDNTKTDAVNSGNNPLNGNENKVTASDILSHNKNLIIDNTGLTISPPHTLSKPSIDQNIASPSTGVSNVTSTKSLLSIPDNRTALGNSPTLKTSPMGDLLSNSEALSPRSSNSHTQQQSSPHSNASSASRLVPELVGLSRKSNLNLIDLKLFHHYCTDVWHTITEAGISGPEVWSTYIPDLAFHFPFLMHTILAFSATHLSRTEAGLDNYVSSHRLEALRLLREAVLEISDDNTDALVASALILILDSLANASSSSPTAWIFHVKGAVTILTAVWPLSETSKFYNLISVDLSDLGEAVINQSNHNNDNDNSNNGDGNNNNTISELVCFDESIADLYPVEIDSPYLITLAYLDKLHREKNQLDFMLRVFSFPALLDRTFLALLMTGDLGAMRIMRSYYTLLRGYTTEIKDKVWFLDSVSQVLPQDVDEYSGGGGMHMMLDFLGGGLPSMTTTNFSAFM
How it was run: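 For each ungapped eight-base word taken together with its reverse complement, the Universal PBM Analysis Suite assigned an E-score. Binding data came from GST-tagged yeast transcription factors, applied at about 100-200 nM, on universal all-10-mer Agilent arrays made double-stranded by primer extension. Fluorescent anti-GST marked bound protein, and scans were normalised with masliner.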

Sequence	PBM E-score
AGAGATCT	-0.0842
AGGCACAA	-0.303
GAGGTGCC	-0.048
GGGAATGA	-0.154
ATCTATTG	0.037
TACGACTA	0.438
GCCACTTA	-0.0338
AGACGCGG	-0.105
CCCCACTA	-0.232
CAGCATAC	-0.0447
CAACCTCA	-0.15
CGGAAGAA	0.089
GCCCTTGA	-0.202
CTACTGCC	-0.0288
TAGATGAA	-0.0499
CCCGCAAC	0.0108
CGGTGGCC	-0.232
ACGCTAGT	-0.0278
GAGGCTAA	-0.173
CGGCAGGA	0.0362
AAAAACTG	-0.116
AAGGTGAG	-0.0406

Sequence	PBM E-score
AAGCCTCT	-0.212
AAGCTGCA	-0.0356
CAAATTGA	-0.105
TACGAACA	0.452
TCTGTTAA	-0.0197
ACATGAGA	-0.0378
ATTAGAAC	0.0479
AAACCCCT	-0.265
AGCACGCA	-0.139
GGTAAGCA	-0.132
ACGGGTTG	0.189
ATGGGCGC	-0.111
CTACGCCA	-0.273
CCGAAGTC	0.0185
GCACACCC	-0.0607
ACTACGCT	-0.125
TGCATCCA	-0.156
TCAGGGCA	-0.0129
CTGTTATA	0.00278
ACGACGAG	0.38
AAGCTATT	-0.0496
GATTGTAA	0.12

Sequence	PBM E-score
AAACGGAG	0.29
CAACTTAG	-0.104
GATGTTCA	-0.228
ACAAGTTG	-0.257
GACGGTCC	-0.169
CCGGAGCG	0.19
GCCAACGA	0.0777
AAATTTAG	0.134
AACAAACA	-0.148
CAACGGGC	0.0786
CCTGCGTC	-0.186
GCACCGGC	-0.141
TACAAGTA	0.0403
ATCCTACG	0.0255
CGTGCCGA	0.169
AGGGCGTA	0.0999
CCCACTTC	0.0232
ATATCCAG	0.0146
GGGTACGA	0.491
ATCTACAT	-0.0415
ATAATCCA	-0.0422
ATAGGGAG	-0.184

Sequence	PBM E-score
AAACATAA	-0.0761
CCGGTCGA	-0.0232
TAAACATA	0.0845
ATTTGTTG	0.0446
ACTAGTCT	-0.282
AGGCAAAG	-0.172
AATGGAGA	-0.117
CGGTAGGA	-0.125
AGGGATAA	-0.0417
GACCCTGC	-0.0631
GCCGCCGA	-0.109
ATTCACGA	0.0492
GGGACAAC	0.0183
CGTTAATA	0.352
ATTAAGTA	0.103
CGGTTAGC	0.086
CAATCAGG	-0.199
TATGACAA	0.168
GGGAAAAC	0.0506
CAAGCTTA	-0.168

— the supplement of paper PMC3334620
